Test results reported in PubChem BioAssay AID686978 (National Center for Advancing Translational Sciences (NCATS), 2013).
Out of some 420,000 compounds screened, about 64,000 (15%) were called active. The inconclusive results got no clear call from the source; some entries with a clear call stand among them for comparison. Calls follow the shape of the dose curve; as a rule, active = well fitted inhibition curve with a large enough effect; inconclusive = small, poorly fitted or top-dose-only effect; inactive = flat fitted curve, though single readings scatter. No potency is given beside an inconclusive call; the fits are too rough.
% is scaled to controls: 0 for no effect and ±100 for the full control effect; potency is read from the fitted curve at half-maximal effect; tags tell the direction and shape of the fitted curve.

Assay: qHTS for Inhibitors of human tyrosyl-DNA phosphodiesterase 1 (TDP1): qHTS in cells in absence of CPT; also: nearly all actives have a fitted effect of over 55% in size
Settings: DT40 Tdp1-/- hTDP1 cells, no CPT, ATP luminescence, 48 h; activity change, negative = growth inhibition: at 46.2 µM (top of the series)
How it was run: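 Seeded 400 DT40-hTDP1 cells/well (vehicle DMSO, no 20 nM CPT); pinned compounds; ≥48 hr at 37 °C; CellTiter-Glo luminescence as viability measure.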
For `CCN(CC)C(=O)Cn1c(=O)n(Cc2ccc(C(=O)NCCc3ccc(OC)c(OC)c3)cc2)c(=O)c2ccccc21`, the Potency was inconclusive [inhibitor, partial curve]. With `COC(=O)C(NC(=O)c1c(C)nn(C)c1Cl)c1ccccc1` (centres undefined) the “activity change, negative = growth inhibition” value was inactive: 0.885%. With `CCN(Cc1nc(-c2ccc(OC)cc2)no1)C(=O)c1ccc2c(c1)OCO2` the “activity change, negative = growth inhibition” value was inactive: -9.23%. For `CCc1ccc(CN(Cc2cn[nH]c2-c2ccc(OC)cc2)C(=O)Nc2cc(Cl)ccc2OC)cc1`, the Potency was active: 23.1 µM. With `CCN(CC)S(=O)(=O)c1ccc(C(=O)Nc2cccc(C)c2)cc1` the “activity change, negative = growth inhibition” value was inactive: -20.4%. For `CC(C)(C)OC(=O)NCCC(=O)N/N=C/c1cccc2cccnc12`, the Potency was inconclusive [inhibitor, single point]. With `Nc1ccc2c(c1)C(=O)CCC2` the “activity change, negative = growth inhibition” value was inactive: -21.8%. In the case of `FC(F)(F)c1nc(N2CCCC2)ncc1-c1nnnn1-c1ccc(Cl)cc1`, the Potency is reported as active: 18.4 µM. With `CCSC1=NC(C)(C)C=C(/C=C/c2ccc(Cl)cc2Cl)N1` the Potency was active: 16.4 µM. With `CC(Sc1nnc(-c2ccc(OC(F)F)cc2)n1N)C(=O)NCC1CCCO1` (centres undefined) the “activity change, negative = growth inhibition” value was inactive: -2.96%. With `COc1ccc(S(=O)(=O)n2ccc(-c3cnc(-c4ccccc4)s3)n2)cc1` the Potency was inconclusive [inhibitor, single point]. In the case of `Cc1cc(NCc2ccccc2)n2ncc(-c3ccccc3)c2n1`, the Potency is reported as inconclusive [inhibitor, single point]. For `Cc1ccccc1N1C(S)=C(C#N)C(=O)NC1c1cccs1` (centres undefined), the Potency was inconclusive [inhibitor, partial curve]. For `Cc1ccc(-n2ncc3c(NC4CCCCCC4)ncnc32)cc1Cl`, the Potency was inconclusive [inhibitor, single point]. For `CC(=O)c1ccc(N2C(=O)N(CC(=O)c3ccc(F)cc3)c3ccccc3S2(=O)=O)cc1`, the activity change, negative = growth inhibition was inconclusive: -33% [inhibitor]. For `Cc1nc(C)c(-c2ccc(SCC(=O)Nc3ccc(F)cc3F)nn2)s1`, the Potency was inconclusive [inhibitor, single point]. In the case of `Cc1cc(N2CCCCCC2)n2nc(C)c(-c3ccccc3)c2n1`, the Potency is reported as inconclusive [inhibitor, single point]. In the case of `CC(C)(C)OC(=O)N1CCCN(C(=O)Nc2ccc(OC(F)(F)F)cc2)CC1`, the Potency is reported as inconclusive [inhibitor, single point]. With `CCOC(=O)C1=C(c2ccccc2)NC(SCC)=C(C#N)C1c1cccnc1` (centres undefined) the Potency was inconclusive [inhibitor, single point]. With `Cc1ccc(CN(CC(O)COc2cccc3[nH]cc(C)c23)C(C)(C)C)cc1` (centres undefined) the Potency was inconclusive [inhibitor, single point]. For `O=C(COc1ccccc1)N1CCN(C(=O)Cc2ccccc2)CC1`, the “activity change, negative = growth inhibition” value was inactive: 2.01%. For `CCCCn1c(=O)[nH]c(=O)c2c1nc(-c1ccc(-c3ccccc3Br)o1)n2CCOC`, the Potency was inconclusive [inhibitor, single point]. In the case of `O=S(=O)(NCC(c1ccco1)N1CCCCC1)c1cccc(C(F)(F)F)c1` (centres undefined), the Potency is reported as inconclusive [inhibitor, single point]. In the case of `COc1ccc(CCN(C)C2CCCN(C(=O)Cn3cnnn3)C2)cc1OC` (centres undefined), the “activity change, negative = growth inhibition” value is reported as inactive: -3.28%. In the case of `O=C(N=Nc1c(O)[nH]c2ccc(Br)cc12)c1ccco1`, the Potency is reported as inconclusive [inhibitor, full curve]. In the case of `Cc1ccc(C)c(S(=O)(=O)N2CCCOC2CNC(=O)C(=O)NCCc2ccccc2)c1` (centres undefined), the Potency is reported as active: 16.4 µM. For `Cc1ccc(/C=C(/NC(=O)c2ccccc2)C(=O)NCCc2c[nH]c3ccccc23)o1`, the Potency was inconclusive [inhibitor, single point]. With `CCN(CC)c1ccc(C(=C2C=CC(=[N+](CC)CC)C=C2)c2ccc(S(=O)(=O)O)cc2S(=O)(=O)[O-])cc1` the Potency was inconclusive [inhibitor, full curve]. With `COc1ccccc1Nc1c2ccccc2nc2ccccc12` the Potency was active: 16.4 µM. With `CC(C)(C)OC(=O)NCc1ccc(NC(=O)c2nc[nH]c2C(=O)N[C@@H](Cc2ccccc2)C(=O)OC(C)(C)C)cc1` the Potency was active: 11.6 µM. For `COc1ccc(NC(=O)CN(C)C(=O)C(C)Sc2ccccc2)cc1` (centres undefined), the “activity change, negative = growth inhibition” value was inactive: -27.7%. In the case of `CC(=O)Nc1ccccc1-c1nnn(CC(=O)Nc2ccc3c(c2)OCCO3)n1`, the Potency is reported as inconclusive [inhibitor, single point]. For `COc1cc(OC)c(C(=O)CCCCN2CCC3(CC2)NC(=O)NC3=O)cc1NS(=O)(=O)c1ccc(C(F)(F)F)cc1`, the Potency was inconclusive [inhibitor, partial curve]. With `CCOC(=O)N1CCN(C(=O)c2cc(-c3ccc(F)cc3)[nH]c2C)CC1` the Potency was active: 20.6 µM. For `Cc1ccc(S(=O)(=O)CCC(O)c2ccc(Cl)cc2)cc1` (centres undefined), the “activity change, negative = growth inhibition” value was inactive: 5.14%. In the case of `Cc1cc(C)n(CC(=O)N2CCCC(C(=O)c3cccc(OC(C)C)c3)C2)n1` (centres undefined), the Potency is reported as inconclusive [inhibitor, single point]. In the case of `O=C(c1nc2nc(-c3ccc(Cl)cc3)cc(C(F)(F)F)n2n1)N1CCOCC1`, the Potency is reported as inconclusive [inhibitor, single point]. In the case of `CCOC(=O)C1=C(C)N=C2SCCC(=O)N2C1c1ccc(OCc2ccccc2)cc1` (centres undefined), the Potency is reported as inconclusive [inhibitor, partial curve, poor fit]. With `Cc1ccc2nsnc2c1NC(=O)c1sc2ccccc2c1Cl` the Potency was inconclusive [inhibitor, partial curve, poor fit]. With `COc1cc2nc(NC(=O)c3ccc(S(=O)(=O)N4CCOCC4)cc3)sc2cc1OC` the “activity change, negative = growth inhibition” value was inactive: -16%. With `CCN1C(=O)[C@H]2[C@H]3CN=C(SCc4ccc(Cl)cc4)N3[C@@](CC)(C(=O)OC)[C@H]2C1=O` the Potency was inconclusive [inhibitor, single point]. With `O=C(CSc1ccccc1)NCC1(N2CCCCC2)CCCCC1` the activity change, negative = growth inhibition was inconclusive: -31.5% [inhibitor]. In the case of `COC(=O)c1ccccc1NC(=O)NC1CCN(Cc2ccccc2)CC1`, the Potency is reported as inconclusive [inhibitor, single point]. With `COc1ccc(-c2cccc(-c3cc(=O)oc4cc5c(cc34)OCO5)c2)cc1` the Potency was inconclusive [inhibitor, single point].
